Measurements: PMC4336329 (PLoS ONE, 2015)
Screen size: about 310,000 compounds; about 14,000 (4.5%) showed an effect of 50% or more. Effects have a minus sign here. Some of the results follow.

Target: human ether-à-go-go-related gene (hERG) potassium channel (human, UniProt Q12809)
Experiment: primary screen, population patch clamp on CHO cells stably expressing hERG
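Note: peak tail current of the secondary pulse compared with the same well before compound.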

Sequence of human ether-à-go-go-related gene (hERG) potassium channel (Q12809 whole entry, looked up): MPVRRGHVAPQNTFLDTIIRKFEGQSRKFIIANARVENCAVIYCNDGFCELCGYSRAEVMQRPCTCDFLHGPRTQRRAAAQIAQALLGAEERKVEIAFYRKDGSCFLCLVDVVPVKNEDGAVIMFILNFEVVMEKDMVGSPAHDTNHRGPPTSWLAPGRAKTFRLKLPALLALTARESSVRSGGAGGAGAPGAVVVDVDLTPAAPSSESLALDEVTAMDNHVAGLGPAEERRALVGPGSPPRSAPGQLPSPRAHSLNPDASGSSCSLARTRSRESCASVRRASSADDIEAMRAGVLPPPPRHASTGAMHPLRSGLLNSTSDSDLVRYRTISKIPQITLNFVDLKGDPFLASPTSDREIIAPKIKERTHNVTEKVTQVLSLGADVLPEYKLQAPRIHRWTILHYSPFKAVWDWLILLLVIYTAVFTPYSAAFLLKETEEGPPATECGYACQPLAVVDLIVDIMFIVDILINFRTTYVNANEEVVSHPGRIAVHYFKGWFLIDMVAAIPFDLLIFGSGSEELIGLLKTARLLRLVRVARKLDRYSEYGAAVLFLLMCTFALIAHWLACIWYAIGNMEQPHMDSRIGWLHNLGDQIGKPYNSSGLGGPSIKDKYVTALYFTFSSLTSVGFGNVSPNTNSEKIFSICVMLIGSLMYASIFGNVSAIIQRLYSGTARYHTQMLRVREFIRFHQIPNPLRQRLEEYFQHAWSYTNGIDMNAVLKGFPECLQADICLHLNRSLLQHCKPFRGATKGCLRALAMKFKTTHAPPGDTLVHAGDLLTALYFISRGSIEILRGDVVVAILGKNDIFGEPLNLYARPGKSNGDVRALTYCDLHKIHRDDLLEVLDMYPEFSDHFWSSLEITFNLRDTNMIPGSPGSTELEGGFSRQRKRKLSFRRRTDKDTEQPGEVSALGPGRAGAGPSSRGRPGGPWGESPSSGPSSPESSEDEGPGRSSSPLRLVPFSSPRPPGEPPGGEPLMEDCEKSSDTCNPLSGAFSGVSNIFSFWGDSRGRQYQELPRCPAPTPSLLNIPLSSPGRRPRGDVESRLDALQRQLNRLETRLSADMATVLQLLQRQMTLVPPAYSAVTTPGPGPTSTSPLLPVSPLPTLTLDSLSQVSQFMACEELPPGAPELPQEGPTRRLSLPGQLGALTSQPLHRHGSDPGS

Point of comparison: `CC(C)n1c(N2CCN(CC(=O)Nc3ccc4c(c3)OCCO4)CC2)nc2ccccc21`, “hERG current change (%, negative = inhibition) at 10uM” value -65.4%. Against it:
- O=C(Nc1ccccc1C(=O)N1CCOCC1)c1cccnc1 — higher, -6.93%
- CC(C)=CCC(C)(C)C1OCCN1C(=O)Nc1ccccc1 (stereo not shown) — higher, -9.69%
- CCC(Sc1nc2ncccc2[nH]1)C(=O)N1CCOCC1 (stereo not shown) — higher, -10%
- CC(C)(C)c1cc(CN2CCC(O)CC2)cc(C(C)(C)C)c1O — lower, -70.1%
- O=c1cc(N2CCCCC2)c(-c2ccccc2)nn1Cc1cccc(Cl)c1 — higher, 0.996%
- S=C(NCC1CCCO1)N1CCN(c2cccc(Cl)c2)CC1 (stereo not shown) — higher, -17.4%
- NC(=O)COC(=O)c1cccc(NS(=O)(=O)/C=C/c2ccccc2)c1 — higher, -34.2%
- Cc1cc(N2C(=O)c3ccc(C(=O)Nc4ccc(O)cc4C(=O)O)cc3C2=O)no1 — higher, -6.67%
- CNC(=O)c1c(NC(=O)c2ccc(N3C(=O)CCC3=O)cc2)sc2c1CCC(C)C2 (stereo not shown) — higher, 2.62%
- CCOc1cc(N2CCCC2)ccc1[N+](=O)[O-] — higher, 11.5%
- O=C(COC(=O)c1ccc(O)cc1)Nc1cccc(S(=O)(=O)NC2=NCCCCC2)c1 — higher, 6.34%
- CN(C)S(=O)(=O)NCCNc1ccc(C(F)(F)F)cc1[N+](=O)[O-] — higher, 1.95%
- Cc1ccc(N=Cc2cc(Cl)cc(Cl)c2O)nc1 — higher, -10.9%
- C/C(=N\NC(=O)c1ccccn1)c1ccc(Cl)cc1 — higher, 5.74%
- CCCCNC(=O)c1cc(S(=O)(=O)N2CCCCC2)oc1C — higher, 1.42%
- CCOC(=O)C(C)NC(=O)CCc1nnc2ccc(N3CCCCC3)nn12 (stereo not shown) — higher, 13.6%
- Cc1sc(NC(=O)C2CCCCC2C(=O)O)c(C(N)=O)c1-c1ccc(C(C)C)cc1 (stereo not shown) — higher, -9.39%
- COC1=CCC2([N+](=O)[O-])CN(CC(=O)O)CC1([N+](=O)[O-])C2 (stereo not shown) — higher, 10.5%
- CCC(=O)Nc1ccc(OCC2CCCO2)cc1 (stereo not shown) — higher, 7.08%
- O=C(Nc1ccc(F)cc1)N(Cc1nnc2n1CCCCC2)c1ccccc1 — higher, 7.06%
- C=CCn1c(O)c(N=NC(=O)c2ccc3c(c2)OCO3)c2ccccc21 — higher, 4.5%
- CCc1ccc(NC(=O)c2cc(-c3ccc4c(c3)OCO4)on2)cc1 — higher, 0.435%
- COc1cc(NC(=O)Cc2ccccc2OC)cc(OC)c1 — higher, -9.84%
- NC(=O)COC(=O)c1c2c(nc3ccccc13)CCCC2 — higher, -53.3%
- COc1cccc(N=c2oc3ccccc3cc2-c2nc3ccccc3[nH]2)c1 — higher, 16.6%
- CCOC(=O)c1nc2sc3c(c2c(=O)[nH]1)CCC(C)C3 (stereo not shown) — higher, 10.3%
- CN(CC(=O)Nc1cccc(F)c1)C(=O)c1cc(=O)[nH]c2ccccc12 — higher, 0.0924%
- O=C(OCC(O)COc1ccccc1)c1ccc([N+](=O)[O-])cc1 (stereo not shown) — higher, -7.79%
- C=C1N(c2cccc(Cl)c2)C(=O)OC1(C)C — higher, 12.7%
- COc1cc(C(=O)Nc2nc(C)c(Cc3ccc4c(c3)OCO4)s2)cc(OC)c1OC — higher, -0.661%
- O=C(O)CSc1ncnc2scc(-c3ccccc3)c12 — higher, 13.1%
- COc1ccc(NC(=O)c2cncn2-c2ccccc2)cc1 — higher, 13.7%
- CCNS(=O)(=O)c1ccc(NC(=S)NCC2CCCO2)cc1 (stereo not shown) — higher, 9.03%
- Cn1c2ccccc2c(=O)c2c(=O)n(Cc3ccco3)c(-c3ccc(Cl)cc3Cl)nc21 — higher, -2.26%
- COc1ccc(C(=O)OCC(=O)N(C)C2CCS(=O)(=O)C2)cc1Br (stereo not shown) — higher, -15.2%
- COc1cc(C)c(CNCCc2c[nH]c3ccccc23)cc1C.O=C(O)C(=O)O — higher, -36.9%
- CCCC(=O)Nc1ccc(Cl)c(NC(=O)c2ccc(Br)o2)c1 — higher, -31.9%
- COc1cc2c(cc1OC)C1(CCCC1)C(N)=C2C#N — higher, -0.733%
- CCOc1cc(/C=C/c2nc3ccccc3s2)ccc1OCC(=O)N1CCOCC1 — higher, -29.6%
- CC(C)C1Oc2ccccc2N(CC(=O)N(Cc2ccccn2)CC2CCCO2)C1=O (stereo not shown) — higher, -12.6%
- CCOP(=O)(OCC)C(Nc1ccccc1)c1ccc2c(c1)OCO2 (stereo not shown) — higher, -14.1%
- Cc1cc(N)n(-c2ccc3ccccc3c2)n1 — higher, 3.46%
- C=CCN1C(=O)CS/C1=N\N=C\c1cccc([N+](=O)[O-])c1 — higher, -9.06%
- CNC(=O)NC(=O)C(C)OC(=O)c1c(C)noc1C (stereo not shown) — higher, 9.99%
- COCCCNC(=O)c1ccc(CS(=O)(=O)c2ccc(Br)cc2)o1 — higher, -14.3%
- CC(C)Oc1ccc(C(=O)O)c(C(=O)O)c1 — higher, -7.09%
- CCc1ccc(NC(=O)CCc2ccc(C)o2)cc1 — higher, 18.2%
- CN1CCN(CC(O)Cn2c3ccccc3c3ccccc32)CC1.O=C(O)C(=O)O (stereo not shown) — higher, 3.46%
- CC(=O)N1N=C(c2ccccc2)CC1c1ccc(F)cc1 (stereo not shown) — higher, 3.21%
- CCOC(=O)N1CCN(C(=S)NC(=O)c2ccc(F)c(F)c2)CC1 — higher, -8.76%
- Cc1ccc(NC(=O)c2ccccc2OCC(=O)c2ccc(F)cc2)cc1 — higher, -1.85%
- Cc1cc(NC(=O)CCCC(=O)NCc2cccs2)no1 — higher, -10.1%
- CN(C)c1cccc(C(=O)OCC(=O)Nc2ccccc2-c2ccccc2)c1 — higher, -14.2%
- Cc1cc(C)c(NC(=O)CSc2ccc(-c3ccccn3)nn2)c(C)c1 — higher, 17.9%
- Cc1ccn2c(=O)nc(SCC(=O)NCc3ccccc3)nc2c1 — higher, 0.12%
- CCOC(=O)N1CCN(CC(O)c2ccc3cc[nH]c3c2)CC1 (stereo not shown) — higher, -30.4%
- CCCCN1C2=NC(c3ccccc3)CN2c2ccccc21.Cl (stereo not shown) — lower, -69%
